Positions count from the first letter of the chain named.
Biological target: T1, C4.4a on A549 cells transfected with the sequence for the complete C4.4a receptor (Homo sapiens)
T1 chain: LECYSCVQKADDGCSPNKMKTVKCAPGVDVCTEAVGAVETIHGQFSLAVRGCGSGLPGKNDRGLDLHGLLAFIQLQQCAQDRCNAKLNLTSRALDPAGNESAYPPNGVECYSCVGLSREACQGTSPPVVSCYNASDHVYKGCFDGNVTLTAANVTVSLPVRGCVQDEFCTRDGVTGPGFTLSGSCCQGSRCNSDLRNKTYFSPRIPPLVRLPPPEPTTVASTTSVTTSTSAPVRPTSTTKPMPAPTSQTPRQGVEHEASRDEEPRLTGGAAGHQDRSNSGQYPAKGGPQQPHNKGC
Assay: cell-based or functional assay

B1: ADC of Example 122 (antibody)
heavy: EVQLLESGGGLVQPGGSLRLSCAASGFTFSNAWMSWVRQAPGKGLEWVSYISSSGSTIYYADSVKGRFTISRDNSKNTLYLQMNSLRAEDTAVYYCAREGLWAFDYWGQGTLVTVSS[in this place human IgG1 constant region]
light: ESVLTQPPSVSGAPGQRVTISCTGSSSNIGAGYVVHWYQQLPGTAPKLLIYDNNKRPSGVPDRFSGSKSGTSASLAISGLRSEDEADYYCAAWDDRLNGPVFGGGTKLTVLGQPKAAPSVTLFPPSSEELQANKATLVCLISDFYPGAVTVAWKADSSPVKAGVETTTPSKQSNNKYAASSYLSLTPEQWKSHRSYSCQVTHEGSTVEKTVAPTECS
modifications: toxophore-linker on Cys (via S); toxophore-linker on Cys (via S)
IC50 [nM] A549: C4.4a (cell viability): 0.04 nM

B2: ADC of Example 123 (antibody)
heavy: B1 heavy
light: B1 light
modifications: toxophore-linker on Lys (via NH); toxophore-linker on Lys (via NH)
IC50 [nM] A549: C4.4a (cell viability): 0.02 nM

B3: ADC of Example 124 (antibody)
heavy: B1 heavy
light: B1 light
modifications: toxophore-linker on Lys (via NH); toxophore-linker on Lys (via NH)
IC50 [nM] A549: C4.4a (cell viability): 0.04 nM

B4: ADC of Example 125 (antibody)
heavy: B1 heavy
light: B1 light
modifications: toxophore-linker on Lys (via NH); toxophore-linker on Lys (via NH)
IC50 [nM] A549: C4.4a (cell viability): 0.04 nM

B5: ADC of Example 1 (antibody)
heavy: B1 heavy with E1Q, Q3E
light: B1 light with E1D, S2I, V10A, A13T, A155G
modifications: toxophore-linker on Cys (via S); toxophore-linker on Cys (via S)
IC50 [nM] A549: C4.4a (cell viability): 0.081 nM

B6: ADC of Example 15 (antibody)
heavy: B1 heavy with E1Q, Q3E
light: B1 light with E1D, S2I, V10A, A13T, A155G
modifications: toxophore-linker on Cys (via S); toxophore-linker on Cys (via S)
IC50 [nM] A549: C4.4a (cell viability): 0.03 nM

Reference: US8992932B2 (Seattle Genetics, Inc., dated 2015)
